{"source": "the supplement of paper PMC4604168 (melanoma cell lines)", "note": "This is one part of the list. Single values are uncertain, as repeats are few or missing.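 Also: cell number obtained by counting DAPI-stained nuclei in high-throughput microscope images with image analysis software, screen run in 1,536-well plates.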", "data": [{"test_system": "501Mel", "test": "cell count relative to DMSO control; higher = more viable cells", "conditions": "library dose: low library concentration; 72 h", "units": {"cell count": "%"}, "values": [{"smiles": "Cn1c(Nc2ccc(C(F)(F)F)cc2)nc2cc(Oc3ccnc(-c4ncc(C(F)(F)F)[nH]4)c3)ccc21", "note": "+ O=C(Oc1ccc([N+](=O)[O-])cc1)N1CCC(C(O)(c2ccc3c(c2)OCO3)c2ccc3c(c2)OCO3)CC1 [JZL184] (first compound 0.08 µM, partner dose 1 µM)", "cell count": 58.3}, {"smiles": "C#Cc1cccc(Nc2ncnc3cc(OCCOC)c(OCCOC)cc23)c1", "note": "[erlotinib] + C[As](C)SC[C@H](NC(=O)CC[C@H](N)C(=O)O)C(=O)NCC(=O)O [Darinaparsin] (first compound 0.8 µM, partner dose 0.4 µM)", "cell count": 80.7}, {"smiles": "Nc1ccn([C@@H]2O[C@H](CO)[C@@H](O)C2(F)F)c(=O)n1", "note": "[gemcitabine] + C[As](C)SC[C@H](NC(=O)CC[C@H](N)C(=O)O)C(=O)NCC(=O)O [Darinaparsin] (first compound 0.0004 µM, partner dose 0.4 µM)", "cell count": 59.7}, {"smiles": "COc1cc(N2CCC(N3CCN(C)CC3)CC2)ccc1Nc1ncc(Cl)c(Nc2ccccc2S(=O)(=O)C(C)C)n1", "note": "+ O=C(Oc1ccc([N+](=O)[O-])cc1)N1CCC(C(O)(c2ccc3c(c2)OCO3)c2ccc3c(c2)OCO3)CC1 [JZL184] (first compound 0.08 µM, partner dose 1 µM)", "cell count": 88.5}, {"smiles": "Cn1c(Nc2ccc(C(F)(F)F)cc2)nc2cc(Oc3ccnc(-c4ncc(C(F)(F)F)[nH]4)c3)ccc21", "note": "+ C/C(O)=C(\\C#N)C(=O)Nc1cc(Br)ccc1Br [LFM-A13] (first compound 0.08 µM, partner dose 2 µM)", "cell count": 52.6}, {"smiles": "CO[C@H]1C[C@@H]2CC[C@@H](C)[C@@](O)(O2)C(=O)C(=O)N2CCCC[C@H]2C(=O)O[C@H]([C@H](C)C[C@@H]2CC[C@@H](OCCO)[C@H](OC)C2)CC(=O)[C@H](C)/C=C(\\C)[C@@H](O)[C@@H](OC)C(=O)[C@H](C)C[C@H](C)/C=C/C=C/C=C/1C", "note": "[everolimus] + C[As](C)SC[C@H](NC(=O)CC[C@H](N)C(=O)O)C(=O)NCC(=O)O [Darinaparsin] (first compound 0.02 µM, partner dose 0.4 µM)", "cell count": 25.3}, {"smiles": "C=CCn1c(=O)c2cnc(Nc3ccc(N4CCN(C)CC4)cc3)nc2n1-c1cccc(C(C)(C)O)n1", "note": "+ O=C(Oc1ccc([N+](=O)[O-])cc1)N1CCC(C(O)(c2ccc3c(c2)OCO3)c2ccc3c(c2)OCO3)CC1 [JZL184] (first compound 0.02 µM, partner dose 1 µM)", "cell count": 78.7}]}, {"test_system": "A101D", "test": "cell count relative to DMSO control; melanoma cells; higher = more viable cells", "conditions": "library dose: low library concentration; 72 h", "units": {"cell count": "%"}, "values": [{"smiles": "COc1ccc(COc2ccc(Cc3cnc(N)nc3N)cc2OC)cc1", "note": "+ Cc1cc(SCc2sc(-c3ccc(C(F)(F)F)c(F)c3)nc2C)ccc1OCC(=O)O [GW0742] (first compound 1 µM, partner dose 2 µM)", "cell count": 101}, {"smiles": "Clc1ccc(Nc2nnc(Cc3ccncc3)c3ccccc23)cc1", "note": "[vatalanib] + C[As](C)SC[C@H](NC(=O)CC[C@H](N)C(=O)O)C(=O)NCC(=O)O [Darinaparsin] (first compound 2 µM, partner dose 0.4 µM)", "cell count": 95.2}, {"smiles": "COc1ccc(COc2ccc(Cc3cnc(N)nc3N)cc2OC)cc1", "note": "+ C/C(O)=C(\\C#N)C(=O)Nc1cc(Br)ccc1Br [LFM-A13] (first compound 1 µM, partner dose 2 µM)", "cell count": 104}, {"smiles": "COCC[n+]1c2c(n(Cc3cnccn3)c1C)C(=O)c1ccccc1C2=O", "note": "+ Cc1cc(SCc2sc(-c3ccc(C(F)(F)F)c(F)c3)nc2C)ccc1OCC(=O)O [GW0742] (first compound 0.0004 µM, partner dose 2 µM)", "cell count": 94.1}, {"smiles": "O=C(CCCCCCC(=O)Nc1ccccc1)NO", "note": "[vorinostat] + Cc1cc(SCc2sc(-c3ccc(C(F)(F)F)c(F)c3)nc2C)ccc1OCC(=O)O [GW0742] (first compound 0.08 µM, partner dose 2 µM)", "cell count": 88.1}, {"smiles": "Cc1cc(Nc2cc(N3CCN(C)CC3)nc(Sc3ccc(NC(=O)C4CC4)cc3)n2)n[nH]1", "note": "[Tozasertib] + C[C@]12O[C@H](C[C@]1(O)CO)n1c3ccccc3c3c4c(c5c6ccccc6n2c5c31)CNC4=O [Lestaurtinib] (first compound 0.006 µM, partner dose 0.004 µM)", "cell count": 100}, {"smiles": "O=C(O)c1ccc2c(c1)nc(Nc1cccc(Cl)c1)c1ccncc12", "note": "+ C[As](C)SC[C@H](NC(=O)CC[C@H](N)C(=O)O)C(=O)NCC(=O)O [Darinaparsin] (first compound 0.4 µM, partner dose 0.4 µM)", "cell count": 108}, {"smiles": "Cn1c(Nc2ccc(C(F)(F)F)cc2)nc2cc(Oc3ccnc(-c4ncc(C(F)(F)F)[nH]4)c3)ccc21", "note": "+ Cc1cc(SCc2sc(-c3ccc(C(F)(F)F)c(F)c3)nc2C)ccc1OCC(=O)O [GW0742] (first compound 0.08 µM, partner dose 2 µM)", "cell count": 62.9}, {"smiles": "C#Cc1cccc(Nc2ncnc3cc(OCCOC)c(OCCOC)cc23)c1", "note": "[erlotinib] + O=C(Oc1ccc([N+](=O)[O-])cc1)N1CCC(C(O)(c2ccc3c(c2)OCO3)c2ccc3c(c2)OCO3)CC1 [JZL184] (first compound 0.8 µM, partner dose 1 µM)", "cell count": 106}, {"smiles": "Cc1cc(Nc2cc(N3CCN(C)CC3)nc(Sc3ccc(NC(=O)C4CC4)cc3)n2)n[nH]1", "note": "[Tozasertib] + Cn1cc(C2=C(c3cn(C4CCN(Cc5ccccn5)CC4)c4ccccc34)C(=O)NC2=O)c2ccccc21 [Enzastaurin] (first compound 0.006 µM, partner dose 0.8 µM)", "cell count": 105}, {"smiles": "O=C(CCCCCCC(=O)Nc1ccccc1)NO", "note": "[vorinostat] + C/C(O)=C(\\C#N)C(=O)Nc1cc(Br)ccc1Br [LFM-A13] (first compound 0.08 µM, partner dose 2 µM)", "cell count": 107}, {"smiles": "Oc1cc(-c2nc(-c3ccccc3)[nH]c2-c2ccncc2)ccc1Cl", "note": "+ C/C(O)=C(\\C#N)C(=O)Nc1cc(Br)ccc1Br [LFM-A13] (first compound 0.2 µM, partner dose 2 µM)", "cell count": 90.5}, {"smiles": "c1cc(-c2cnn3cc(-c4ccc(OCCN5CCCCC5)cc4)cnc23)ccn1", "note": "[Dorsomorphin] + O=C(Oc1ccc([N+](=O)[O-])cc1)N1CCC(C(O)(c2ccc3c(c2)OCO3)c2ccc3c(c2)OCO3)CC1 [JZL184] (first compound 0.4 µM, partner dose 1 µM)", "cell count": 109}, {"smiles": "CN1CCN(c2ccc3nc(-c4c(N)c5c(F)cccc5[nH]c4=O)[nH]c3c2)CC1", "note": "[Dovitinib] + C[As](C)SC[C@H](NC(=O)CC[C@H](N)C(=O)O)C(=O)NCC(=O)O [Darinaparsin] (first compound 0.1 µM, partner dose 0.4 µM)", "cell count": 85.7}, {"smiles": "Cc1cc(Nc2cc(N3CCN(C)CC3)nc(Sc3ccc(NC(=O)C4CC4)cc3)n2)n[nH]1", "note": "[Tozasertib] + C[As](C)SC[C@H](NC(=O)CC[C@H](N)C(=O)O)C(=O)NCC(=O)O [Darinaparsin] (first compound 0.006 µM, partner dose 0.4 µM)", "cell count": 94.3}, {"smiles": "C#Cc1cccc(Nc2ncnc3cc(OCCOC)c(OCCOC)cc23)c1", "note": "[erlotinib] + C/C(O)=C(\\C#N)C(=O)Nc1cc(Br)ccc1Br [LFM-A13] (first compound 0.8 µM, partner dose 2 µM)", "cell count": 91.6}, {"smiles": "Oc1nc(-c2ccc(C(F)(F)F)cc2)nc2c1CSCC2", "note": "+ O=C(Oc1ccc([N+](=O)[O-])cc1)N1CCC(C(O)(c2ccc3c(c2)OCO3)c2ccc3c(c2)OCO3)CC1 [JZL184] (first compound 2 µM, partner dose 1 µM)", "cell count": 91.4}, {"smiles": "C[C@@H]1CCN(C(=O)CC#N)C[C@@H]1N(C)c1ncnc2[nH]ccc12", "note": "+ Cc1cc(SCc2sc(-c3ccc(C(F)(F)F)c(F)c3)nc2C)ccc1OCC(=O)O [GW0742] (first compound 1 µM, partner dose 2 µM)", "cell count": 94.4}, {"smiles": "COc1cc2ncnc(Nc3ccc(Oc4ccccc4)cc3)c2cc1OC", "note": "+ O=C(Oc1ccc([N+](=O)[O-])cc1)N1CCC(C(O)(c2ccc3c(c2)OCO3)c2ccc3c(c2)OCO3)CC1 [JZL184] (first compound 2 µM, partner dose 1 µM)", "cell count": 111}, {"smiles": "C[C@@H]1CCN(C(=O)CC#N)C[C@@H]1N(C)c1ncnc2[nH]ccc12", "note": "+ C/C(O)=C(\\C#N)C(=O)Nc1cc(Br)ccc1Br [LFM-A13] (first compound 1 µM, partner dose 2 µM)", "cell count": 110}, {"smiles": "COCC[n+]1c2c(n(Cc3cnccn3)c1C)C(=O)c1ccccc1C2=O", "note": "+ C/C(O)=C(\\C#N)C(=O)Nc1cc(Br)ccc1Br [LFM-A13] (first compound 0.0004 µM, partner dose 2 µM)", "cell count": 107}, {"smiles": "Cc1cc(Nc2cc(N3CCN(C)CC3)nc(Sc3ccc(NC(=O)C4CC4)cc3)n2)n[nH]1", "note": "[Tozasertib] + N.N.[Cl][Pt][Cl] [cisplatin] (first compound 0.006 µM, partner dose 1.6 µM)", "cell count": 86.2}, {"smiles": "COc1cc2ncnc(Nc3ccc(Oc4ccccc4)cc3)c2cc1OC", "note": "+ C/C(O)=C(\\C#N)C(=O)Nc1cc(Br)ccc1Br [LFM-A13] (first compound 2 µM, partner dose 2 µM)", "cell count": 112}, {"smiles": "O=C(O)C(=O)Nc1sc2c(c1C(=O)O)CCNC2", "note": "+ O=C(Oc1ccc([N+](=O)[O-])cc1)N1CCC(C(O)(c2ccc3c(c2)OCO3)c2ccc3c(c2)OCO3)CC1 [JZL184] (first compound 1.66667 µM, partner dose 1 µM)", "cell count": 109}]}]}
